From PubChem BioAssay AID1963576 (National Center for Advancing Translational Sciences (NCATS), 2024)
Screen size: about 46,000 compounds; about 60 (0.1%) were called active. Another 3% or so got no clear call; they are omitted. Calls come from the whole dose curve; as a rule, active = well fitted inhibition curve with a large enough effect; inconclusive = small, poorly fitted or top-dose-only effect; inactive = no such curve, though single readings can be large or run the other way. The list shows a part of the results.

Assay: Primary qHTS assay for Inhibitors of ovarian cancer metastasis using an organotypic tumor microenvironment (TME) model.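 For activity change, negative = inhibition: plate controls were DMSO wells for no effect and tomatine positive control wells for full effect.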 Note: nearly all actives have a fitted effect of over 65% in size.
Details: SKOV3ip1-GFP adhesion/invasion on 3D omental model, fluorescence; series mostly up to 45.8 µM; activity change, negative = inhibition: at the top concentration
In short: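 A 3D layer of primary human omental fibroblasts, mesothelial cells, fibronectin and collagen I, grown 48 hr, received SKOV3ip1-GFP cells in serum-free medium plus compounds at 0.36-46 umol/L. After 2 hr RT and 16 hr 37 C, fixed adherent GFP cells were counted; normalized to DMSO and tomatine.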

Activity change, negative = inhibition, inactive:
O=C(COc1ccc(Cl)cc1)Nc1ccccc1C(=O)OCc1cc(=O)n2ccsc2n1 5.31%
CC(C)(C)CC(=O)Nc1nnc2n1CCS2 1.79%
COc1ccc(Cn2ccnc2SCC(=O)Nc2ccc(C)cc2C)cc1 -2.79%
COc1cccc(NC(=O)CN2CCCN(S(=O)(=O)c3ccc(Br)cc3)CC2)c1 1.07%
Cc1ccc(C)c(N2CCN(C(=O)Cn3ncc4c(=O)oc5ccc(C)cc5c43)CC2)c1 2.05%
CC(=O)c1ccc(NS(=O)(=O)c2cc3[nH]c(=O)c(=O)[nH]c3cc2C)cc1 1.15%
CCOC(=O)c1c(NC(=O)/C=C/c2ccc(OC)c(OC)c2)sc(C(C)=O)c1C -8.69%
CCn1cc(C2N3CC4(CC)CN2CC(CC)(C3)C4=O)c2ccccc21 (stereo not given) 11.3%
O=C(CN1CCSc2ccccc21)N1CCN(c2ccccc2)CC1 -8.01%
Cc1cccc(-n2c3c(cc(-c4nc(-c5ccc(Cl)cc5)cs4)c2=O)C(=O)CC(C)(C)C3)c1 0.827%
COC(=O)c1ccc2c(=O)n(CCCCCC(=O)NCc3ccccc3)c(=O)[nH]c2c1 -4.56%
CCOc1ccccc1CNc1ncnc2c1nc1n2CCCC1 2.67%
Cc1ccccc1Cn1nc(C)c(NC(=O)c2cc(-c3ccc(F)cc3)on2)c1C 0.627%
O=C(C1CCCN(S(=O)(=O)c2cccc3nonc23)C1)N1CCN(c2cccc(Cl)c2)CC1 (stereo not given) 1.23%
CCCn1c(=N)c(C(=O)NCc2cccnc2)cc2c(=O)n3cc(C)ccc3nc21 2.12%
CCc1ccc(CSc2nc(-c3ccccc3OC)nc3c2Cc2c(CO)cnc(C)c2O3)cc1 -4.25%
Cc1ccc(Cn2ccn(CC(=O)Nc3ccccc3C(F)(F)F)c(=O)c2=O)cc1 -6.71%
CCOCCc1nn2c(=O)cc(COC(=O)COc3ccccc3Cl)nc2s1 4.08%
COc1ccccc1CNC(=O)CCc1c(C)nc2cc(-c3ccccc3OC)nn2c1C -0.264%
Cc1ccc(NC(=O)CN2CCCN(Cc3ccccc3Cl)S2(=O)=O)c(C)c1 -2.04%
COc1ccc(CNC(=O)Cn2ccc3cc(S(=O)(=O)N4CCCCC4)ccc32)c(OC)c1 5.17%
CCOc1ccccc1NC(=O)Cn1c(=O)n(CCCC(=O)NCCOC)c(=O)c2cc(OC)c(OC)cc21 9%
CCOC(=O)c1c(C)[nH]c(C)c1S(=O)(=O)N1CCC(C(=O)Nc2ccc(F)cc2F)CC1 16.4%
COC(=O)c1ccccc1NC(=O)CSc1nc(-c2ccccc2)cc(C(F)(F)F)n1 -10.9%
O=C(Cn1ccn(-c2ccc(F)c(F)c2)c(=O)c1=O)c1ccc(F)cc1 -5.78%
Cc1nnc(NC(=O)CSc2nccn2-c2ccc(Cl)cc2)s1 1.98%
CCOc1ccc(Cn2c(CNS(=O)(=O)c3c(C)cc(C)cc3C)nc3cccnc32)cc1 -0.445%
O=S(=O)(c1ccccc1)c1nc(-c2cccs2)oc1SCc1ccccc1Cl 9.59%
Cc1ccc(OCc2nc(-c3ccc(C(=O)N4CCN(c5cc(Cl)ccc5C)CC4)cc3)oc2C)cc1 -2.44%
Cc1ccc(Cl)cc1N1CCN(C(=O)c2cc3c(=O)n(C)c4ccccc4c3s2)CC1 5.61%
O=C(CC1NCCNC1=O)Nc1ccccc1F (stereo not given) 19%
COC(=O)c1ccc(C(=O)OC)c(NC(=O)N2CC3CCCN3c3ccccc32)c1 (stereo not given) 2.32%
CS(=O)(=O)c1cccc(CNc2nc(Nc3ccc4c(c3)CCC(=O)N4)ncc2C(F)(F)F)c1 42.9%
CCOC(=O)CC(=O)CSc1nc2ccccc2c(=O)n1-c1ccc(C(=O)NCCOC)cc1 6.82%
O=C(C1CC1)N1CCc2cc(Br)cc(S(=O)(=O)N3CCN(c4cccc(Cl)c4)CC3)c21 9.85%
Cc1ccc2nc(COc3cccc(NC(=O)COc4ccccc4F)c3)cc(=O)n2c1 -5.64%
COC(=O)c1ccccc1NC(=O)Cn1c(=O)nc(-c2ccccc2)c2cc(Cl)ccc21 5.56%
COc1ccc(Nc2c(-c3ccc(C)o3)nc3ccc(Cl)cn23)cc1 -1.98%
Cc1ccc(NC(=O)c2cc(S(=O)(=O)N3CCCc4ccccc43)ccc2F)cc1F -6.39%
Cc1ccc(-n2ncc(C(=O)N3CCN(c4ccccn4)CC3)c2C2CCN(C(=O)OC(C)(C)C)CC2)cc1 1.1%

outcome, inactive:
CCCC(=O)NCC(c1ccc2c(c1)OCO2)N1CCOCC1 (stereo not given)
Cc1ccc(CNC(=O)CN(c2ccc(C(C)C)cc2)S(=O)(=O)c2c(C)n[nH]c2C)cc1
COc1ccc(S(=O)(=O)NCCc2nnc3ccc(SCC(=O)Nc4ccc(C(F)(F)F)cc4)nn23)cc1
CCc1ccc(NC(=O)c2cc(-c3cccs3)on2)cc1
CSc1ccc(CCNC(=O)CCc2c(C)nc3c(-c4ccccc4)c(C)nn3c2C)cc1
O=C(c1cnc2cc(-c3ccccc3)nn2c1)c1cc([N+](=O)[O-])ccc1O
COc1cccc(/C=C/c2nc(C#N)c(N3CCCCC3)o2)c1
CCOc1ccc(CCNC(=O)CS(=O)Cc2nc(-c3ccc(C)cc3)oc2C)cc1OCC (stereo not given)
COc1ccccc1CNC(=O)C1CCCN(c2nn3cc(-c4ccc(F)cc4)nc3s2)C1 (stereo not given)
Cc1cc(Cl)ccc1NC(=O)CN1C(=O)CSc2ccc(S(=O)(=O)N(C)C)cc21
CC(=O)c1ccc(NC(=O)c2ccc3c(c2)N(Cc2cccc(Cl)c2)C(=O)c2ccccc2S3(=O)=O)cc1
CC(C)c1nn2c(=O)cc(COC(=O)CNC(=O)c3ccccc3Cl)nc2s1
CCN1CCN(c2nnc(-n3cccc3C(=O)Nc3cccc(OC)c3)s2)CC1
COc1ccc(C2CC(=O)c3c(C)nc(N4CCN(C=O)CC4)nc3C2)c(OC)c1 (stereo not given)
CCn1c(=O)sc2cc(NC(=O)c3cccc(OC)c3)ccc21
CCC(C)n1c(SCc2ccc(C(C)(C)C)cc2)nc2ccsc2c1=O (stereo not given)
CCOc1ccccc1NC(=O)CSc1nc2c([nH]c3ccccc32)c(=O)n1-c1ccccc1
Cc1cccc(OCC(=O)OCc2cc(=O)n3nc(-c4cccs4)sc3n2)c1
Cc1ccc(CSc2ccc3nnc(CCNS(=O)(=O)c4ccc(C)cc4)n3n2)cc1
CCOC(=O)c1cc(-c2ccccc2)n(-c2cccc(C(=O)Nc3cccc(C)c3)c2)c1C
